# Measurements as given in PubChem BioAssay (Tox21).
# The inconclusive results got no clear call from the source; some entries with a clear call stand among them for comparison. Where a call stands in place of a potency, no number is given. For some of these results: Where the call is inconclusive, the potency comes from a doubtful curve fit. The source made the active and inactive calls. Unless noted, calls come from the whole dose curve; as a rule, active = well fitted curve in the direction sought with a large enough effect in the repeat runs; inconclusive = weak or mixed curves; inactive = no such curve, though single readings can be large; an effect the other way counts as inactive or inconclusive.
# How the values were obtained:
# [1] = target: Estrogen receptor (Homo sapiens) (UniProt P03372); assay: qHTS assay to identify small molecule agonists of the estrogen receptor alpha (ER-alpha) signaling pathway using the BG1 cell line (AID 743079); details: BG1Luc4E2 cells, ERE-luciferase agonist, 22 h; activation: at 70.3 µM (top of the series) unless noted; note: nearly all actives have a fitted effect of over 20% in size; note: potency is the fitted concentration of half-maximal effect
# UniProt P03372, sequence (P03372 whole entry, looked up): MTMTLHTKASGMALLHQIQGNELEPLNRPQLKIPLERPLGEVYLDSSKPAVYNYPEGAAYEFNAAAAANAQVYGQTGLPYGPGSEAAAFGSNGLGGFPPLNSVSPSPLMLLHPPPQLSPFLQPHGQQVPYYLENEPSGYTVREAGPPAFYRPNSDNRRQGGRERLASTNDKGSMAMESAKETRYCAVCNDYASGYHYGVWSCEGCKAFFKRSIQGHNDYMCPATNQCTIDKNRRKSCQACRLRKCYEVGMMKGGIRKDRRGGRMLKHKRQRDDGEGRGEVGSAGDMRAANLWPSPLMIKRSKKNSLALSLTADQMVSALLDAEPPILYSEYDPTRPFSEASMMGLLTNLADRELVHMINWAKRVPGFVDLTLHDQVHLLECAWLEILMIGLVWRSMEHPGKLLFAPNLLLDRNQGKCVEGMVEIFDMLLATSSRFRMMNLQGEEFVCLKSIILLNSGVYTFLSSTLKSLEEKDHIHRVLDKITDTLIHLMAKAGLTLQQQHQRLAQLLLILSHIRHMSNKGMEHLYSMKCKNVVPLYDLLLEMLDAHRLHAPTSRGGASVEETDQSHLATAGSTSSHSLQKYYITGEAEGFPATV
# [2] = target: Bile acid receptor (Homo sapiens) (UniProt Q96RI1); assay: qHTS assay to identify small molecule antagonists of the farnesoid-X-receptor (FXR) signaling pathway (AID 743217; active = well fitted inhibition curve with a large enough effect in the signal ratio in the repeat runs, not every such curve was filed as active; inconclusive = weak or mixed curves, or effect the other way; inactive = no such curve, though single readings can be large or run the other way; the % refers to the signal ratio); details: HEK293T FXR-UAS-bla, beta-lactamase ratio, CDCA-stimulated, 16 h; activity change, negative = inhibition: at 62.6 µM (top of the series) unless noted
# UniProt Q96RI1, sequence (Q96RI1 whole entry, looked up): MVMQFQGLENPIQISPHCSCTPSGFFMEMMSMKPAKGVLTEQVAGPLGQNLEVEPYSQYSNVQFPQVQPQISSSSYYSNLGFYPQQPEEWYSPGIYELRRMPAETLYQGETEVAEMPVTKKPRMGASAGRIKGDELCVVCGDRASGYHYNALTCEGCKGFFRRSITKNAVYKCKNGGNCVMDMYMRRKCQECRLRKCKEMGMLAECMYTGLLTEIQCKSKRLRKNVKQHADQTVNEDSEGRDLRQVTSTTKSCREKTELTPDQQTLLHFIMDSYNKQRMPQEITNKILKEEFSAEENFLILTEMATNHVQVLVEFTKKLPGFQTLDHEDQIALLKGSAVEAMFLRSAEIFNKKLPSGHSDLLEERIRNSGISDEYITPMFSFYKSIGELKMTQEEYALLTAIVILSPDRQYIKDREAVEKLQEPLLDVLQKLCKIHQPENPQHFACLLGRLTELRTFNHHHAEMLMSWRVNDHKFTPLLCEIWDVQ
# Method in brief: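 Read-out: beta-lactamase FRET fluorescence (LiveBLAzer B/G substrate, 2 h, room temperature) in GeneBLAzer FXR-UAS-bla HEK 293T cells. Compounds were co-dosed with 50 uM chenodeoxycholic acid (final) and incubated 16 h at 37 °C.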
# [3] = qHTS assay to identify small molecule agonists of H2AX - cell viability counter screen (AID 1224847; calls by dose curve; note: nearly all actives have a fitted effect of over 30% in size; note: potency is the fitted concentration of half-maximal effect)
# Method in brief: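 Cells plated first: CHO-K1, 1000 per well in 10% FBS medium, incubated overnight at 37C. Then 15-point compound titration added (final DMSO 0.76%) for 3 hr. Finally CellTiter-Glo added and luminescence read.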
# [4] = target: Nuclear receptor subfamily 1 group I member 2 (Homo sapiens) (UniProt O75469); assay: Human pregnane X receptor (PXR) small molecule agonists, qHTS assay (AID 1346982); note: nearly all actives have a fitted effect of over 35% in size; note: potency is the fitted concentration of half-maximal effect
# UniProt O75469, sequence (O75469 whole entry, looked up): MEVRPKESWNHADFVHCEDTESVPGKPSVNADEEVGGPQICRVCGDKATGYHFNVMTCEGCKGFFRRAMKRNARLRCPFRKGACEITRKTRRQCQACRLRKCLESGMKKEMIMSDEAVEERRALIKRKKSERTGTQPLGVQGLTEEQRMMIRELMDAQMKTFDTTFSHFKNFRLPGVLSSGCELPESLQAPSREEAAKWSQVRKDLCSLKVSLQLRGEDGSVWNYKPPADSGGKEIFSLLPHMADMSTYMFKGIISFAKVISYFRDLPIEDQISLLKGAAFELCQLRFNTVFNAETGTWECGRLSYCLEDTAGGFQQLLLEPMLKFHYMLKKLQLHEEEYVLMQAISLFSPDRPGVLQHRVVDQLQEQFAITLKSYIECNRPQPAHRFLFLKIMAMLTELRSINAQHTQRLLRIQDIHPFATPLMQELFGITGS
# Method in brief: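 HepG2 PXR-Luc reporter line, 5% charcoal-stripped FBS; 5 hr pre-incubation, compound (DMSO) 24 hr at 37 C/5% CO2; ONE-Glo 30 min RT; luminescence read-out.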
# [5] = A CellTox Green Cytotoxicity Assay to monitor cytotoxicity in HEK293 cells - 40 hour (AID 1224871); note: nearly all actives have a fitted effect of over 45% in size; note: potency is the fitted concentration of half-maximal effect
# Method in brief: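 Read-out: fluorescence of a cell-impermeant cyanine dye staining DNA of dead cells, proportional to cytotoxicity. HEK293, 600 cells/well with reagent, compound (23 nL DMSO) added after 5 h; reads at 0, 8, 16, 24, 32, 40 h.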
# [6] = A CellTox Green Cytotoxicity Assay to monitor cytotoxicity in HepG2 cells - 24 hour (AID 1224878); note: nearly all actives have a fitted effect of over 45% in size; note: potency is the fitted concentration of half-maximal effect
# Method in brief: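 HepG2, 600 cells/well premixed w/ CellTox Green; 5 h settle, 37 C/5% CO2; pintool cpd add (DMSO); 37 C, 40 h; fluorescence read at 0, 8, 16, 24, 32, 40 h.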
# [7] = target: Progesterone receptor (Homo sapiens) (UniProt P06401); assay: qHTS assay to identify small molecule agonists of the progesterone receptor (PR) signaling pathway (AID 1346784; calls by dose curve; note: nearly all actives have a fitted effect of over 30% in size; note: potency is the fitted concentration of half-maximal effect); details: PR-UAS-bla HEK293T, beta-lactamase FRET ratio, 16 h; activation: at 92.4 µM (top of the series) unless noted
# UniProt P06401, sequence (P06401 whole entry, looked up): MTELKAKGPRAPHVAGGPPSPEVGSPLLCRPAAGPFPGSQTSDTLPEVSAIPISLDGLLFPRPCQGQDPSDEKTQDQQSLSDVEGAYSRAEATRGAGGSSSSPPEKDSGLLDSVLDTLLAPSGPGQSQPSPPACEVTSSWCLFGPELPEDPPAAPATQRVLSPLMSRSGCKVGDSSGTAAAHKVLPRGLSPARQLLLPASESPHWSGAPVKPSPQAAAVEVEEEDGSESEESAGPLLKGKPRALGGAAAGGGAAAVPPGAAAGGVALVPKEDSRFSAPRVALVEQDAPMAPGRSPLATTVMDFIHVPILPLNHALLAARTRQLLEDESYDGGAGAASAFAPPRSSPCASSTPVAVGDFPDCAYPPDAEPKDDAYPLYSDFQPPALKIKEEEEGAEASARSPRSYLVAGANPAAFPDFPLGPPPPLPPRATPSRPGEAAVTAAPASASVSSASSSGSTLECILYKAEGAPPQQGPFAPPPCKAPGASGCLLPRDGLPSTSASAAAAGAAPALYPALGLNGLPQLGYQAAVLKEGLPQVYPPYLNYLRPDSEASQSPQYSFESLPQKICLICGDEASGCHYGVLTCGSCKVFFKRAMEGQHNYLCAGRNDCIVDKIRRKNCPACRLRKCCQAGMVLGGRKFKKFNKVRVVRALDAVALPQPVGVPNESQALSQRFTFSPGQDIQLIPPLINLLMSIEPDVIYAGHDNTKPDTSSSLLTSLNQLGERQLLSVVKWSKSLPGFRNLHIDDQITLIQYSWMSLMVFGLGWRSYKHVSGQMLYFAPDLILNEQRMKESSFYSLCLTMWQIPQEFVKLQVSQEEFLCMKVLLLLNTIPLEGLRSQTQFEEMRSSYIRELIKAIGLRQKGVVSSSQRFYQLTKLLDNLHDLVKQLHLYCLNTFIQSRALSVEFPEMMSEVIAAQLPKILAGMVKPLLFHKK
# Method in brief: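 Beta-lactamase reporter read-out: after 16 hr compound treatment at 37C and a further 2 hr at room temperature with LiveBLAzer B/G FRET substrate, fluorescence was measured in PR-UAS-bla HEK 293T cells grown in 2% charcoal-stripped serum.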
# [8] = target: Vitamin D3 receptor (Homo sapiens) (UniProt P11473); assay: qHTS assay to identify small molecule agonists of the vitamin D receptor (VDR) signaling pathway (AID 743222; calls by dose curve; note: potency is the fitted concentration of half-maximal effect); details: HEK293T VDR-UAS-bla, beta-lactamase FRET ratio, 16 h; activation: at 63.5 µM (top of the series) unless noted
# UniProt P11473, sequence (P11473 whole entry, looked up): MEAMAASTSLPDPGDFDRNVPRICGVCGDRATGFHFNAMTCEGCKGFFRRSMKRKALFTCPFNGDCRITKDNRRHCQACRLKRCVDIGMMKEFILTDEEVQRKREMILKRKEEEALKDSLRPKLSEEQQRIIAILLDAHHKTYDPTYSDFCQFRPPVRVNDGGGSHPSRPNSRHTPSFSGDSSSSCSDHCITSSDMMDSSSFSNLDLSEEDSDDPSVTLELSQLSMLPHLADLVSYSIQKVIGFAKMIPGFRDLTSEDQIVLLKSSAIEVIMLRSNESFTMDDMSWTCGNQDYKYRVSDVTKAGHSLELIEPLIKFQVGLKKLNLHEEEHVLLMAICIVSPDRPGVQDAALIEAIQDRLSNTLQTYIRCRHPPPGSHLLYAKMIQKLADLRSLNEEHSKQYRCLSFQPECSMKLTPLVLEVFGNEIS
# Method in brief: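 Beta-lactamase reporter readout (LiveBLAzer B/G FRET, 2 h RT) in VDR-bla cells after 16 h compound treatment at 37C, 5% CO2; cells pre-incubated 4 h before pin transfer of DMSO solutions.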
# [9] = Caspase-3/7 induction in CHO-K1 cells by small molecules, qHTS cell viability counter screen (AID 1346979); note: nearly all actives have a fitted effect of over 35% in size; note: potency is the fitted concentration of half-maximal effect
# Method in brief: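 Cells (CHO-K1, wild type) are plated at 1,500 per well and incubated 5hr. Test compounds in DMSO are then pinned in, followed by 16hr at 37C and 5% CO2. Viability is read by CellTiter-Fluor fluorescence after 1hr.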
# [10] = qHTS RealTime-Glo MT Cell Viability Assay in HEK293 cells - 24 hour (AID 1224886); note: nearly all actives have a fitted effect of over 50% in size; note: potency is the fitted concentration of half-maximal effect
# Method in brief: (§1)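 Cells + reagent dispensed (600 cells/well, HEK293) → 5 h at 37 C/5% CO2 → 23 nL compound in DMSO pinned → 40 h at 37 C → luminescence read at 0, 8, 16, 24, 32, 40 h.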
# [11] = target: Peroxisome proliferator-activated receptor gamma (Homo sapiens) (UniProt P37231); assay: qHTS assay to identify small molecule agonists of the peroxisome proliferator-activated receptor gamma (PPARg) signaling pathway (AID 743094; active = well fitted activation curve with a large enough effect in the signal ratio in the repeat runs, not every such curve was filed as active; inconclusive = weak or mixed curves, or effect the other way; inactive = no such curve, though single readings can be large or run the other way; the % refers to the signal ratio); details: HEK293H PPARg-UAS-bla, beta-lactamase FRET ratio, 17 h; activation: at 57 µM (top of the series) unless noted
# UniProt P37231, sequence (P37231 whole entry, looked up): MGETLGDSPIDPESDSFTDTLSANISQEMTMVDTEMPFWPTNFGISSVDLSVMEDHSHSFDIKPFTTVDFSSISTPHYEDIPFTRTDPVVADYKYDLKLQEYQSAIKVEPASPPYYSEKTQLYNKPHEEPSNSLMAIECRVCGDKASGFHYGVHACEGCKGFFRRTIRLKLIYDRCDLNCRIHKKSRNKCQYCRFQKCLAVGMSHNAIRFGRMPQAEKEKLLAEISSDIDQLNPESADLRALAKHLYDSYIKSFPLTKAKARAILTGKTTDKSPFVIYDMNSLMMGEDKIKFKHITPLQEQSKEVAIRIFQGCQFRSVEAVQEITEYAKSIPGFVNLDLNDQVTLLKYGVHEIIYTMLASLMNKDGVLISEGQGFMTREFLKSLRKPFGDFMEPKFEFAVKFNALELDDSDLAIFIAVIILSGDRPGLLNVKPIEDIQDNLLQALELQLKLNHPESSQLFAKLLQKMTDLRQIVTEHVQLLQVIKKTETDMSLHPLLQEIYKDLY
# Method in brief: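 HEK293H PPARg-bla cells, 5 h settle at 37C/5% CO2; compound (DMSO) 17 h, 37C; B/G FRET substrate 1 h RT; fluorescence intensity read-out. qHTS format.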
# [12] = qHTS assay to identify small molecule antagonists of the estrogen receptor alpha (ER-alpha) signaling pathway - cell viability counter screen (AID 743074; calls by dose curve;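 note: HEK293 cells carrying ER-alpha-UAS-bla reporter stimulated with 17beta-estradiol; nearly all actives have a fitted effect of over 45% in size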)
# [13] = qHTS RealTime-Glo MT Cell Viability Assay in HEK293 cells - 32 hour (AID 1224868); note: nearly all actives have a fitted effect of over 50% in size; note: potency is the fitted concentration of half-maximal effect
# Method in brief: as §1
# [14] = target: Estrogen receptor beta (Homo sapiens) (UniProt Q92731); assay: qHTS assay to identify small molecule agonists of the estrogen receptor beta (ER-beta) signaling pathway (AID 1259377; active = well fitted activation curve with a large enough effect in the signal ratio in the repeat runs, not every such curve was filed as active; inconclusive = weak or mixed curves, or effect the other way; the % refers to the signal ratio); details: ER-beta-UAS-bla HEK293T, beta-lactamase FRET ratio, 16 h; activation: at 92.4 µM (top of the series) unless noted
# UniProt Q92731, sequence (Q92731 whole entry, looked up): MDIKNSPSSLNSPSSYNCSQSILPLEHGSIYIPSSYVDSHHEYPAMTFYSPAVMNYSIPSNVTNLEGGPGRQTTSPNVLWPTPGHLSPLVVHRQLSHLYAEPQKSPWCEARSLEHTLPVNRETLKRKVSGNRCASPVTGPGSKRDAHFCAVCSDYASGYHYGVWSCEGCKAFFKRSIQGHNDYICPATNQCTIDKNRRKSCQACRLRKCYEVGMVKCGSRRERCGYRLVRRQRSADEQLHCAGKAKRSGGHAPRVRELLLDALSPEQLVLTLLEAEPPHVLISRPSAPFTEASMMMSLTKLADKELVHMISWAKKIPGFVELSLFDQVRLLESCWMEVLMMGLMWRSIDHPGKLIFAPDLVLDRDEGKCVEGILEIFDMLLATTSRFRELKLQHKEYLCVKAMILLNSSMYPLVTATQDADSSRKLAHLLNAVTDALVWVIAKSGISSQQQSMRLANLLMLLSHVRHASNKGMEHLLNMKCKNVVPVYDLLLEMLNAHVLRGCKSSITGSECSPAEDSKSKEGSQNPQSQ
# Method in brief: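 HEK293T ER-beta-UAS-bla; 2% charcoal-stripped FBS; cells pre-incubated 6 hr, compound 16 hr, 37C/5% CO2; LiveBLAzer B/G FRET substrate 2 h RT; fluorescence intensity read.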
# [15] = target: Peroxisome proliferator-activated receptor delta (Homo sapiens) (UniProt Q03181); assay: qHTS assay to identify small molecule antagonists of the peroxisome proliferator-activated receptor delta (PPARd) signaling pathway (AID 743215; active = well fitted inhibition curve with a large enough effect in the signal ratio in the repeat runs, not every such curve was filed as active; inconclusive = weak or mixed curves, or effect the other way; inactive = no such curve, though single readings can be large or run the other way; the % refers to the signal ratio;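 note: cells stimulated with agonist L165041 at 300 nM final during compound exposure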); details: HEK293H PPARd-UAS-bla, beta-lactamase FRET ratio, antagonist, 17 h; ratio activity, negative = inhibition: at 62 µM (top of the series) unless noted
# UniProt Q03181, sequence (Q03181 whole entry, looked up): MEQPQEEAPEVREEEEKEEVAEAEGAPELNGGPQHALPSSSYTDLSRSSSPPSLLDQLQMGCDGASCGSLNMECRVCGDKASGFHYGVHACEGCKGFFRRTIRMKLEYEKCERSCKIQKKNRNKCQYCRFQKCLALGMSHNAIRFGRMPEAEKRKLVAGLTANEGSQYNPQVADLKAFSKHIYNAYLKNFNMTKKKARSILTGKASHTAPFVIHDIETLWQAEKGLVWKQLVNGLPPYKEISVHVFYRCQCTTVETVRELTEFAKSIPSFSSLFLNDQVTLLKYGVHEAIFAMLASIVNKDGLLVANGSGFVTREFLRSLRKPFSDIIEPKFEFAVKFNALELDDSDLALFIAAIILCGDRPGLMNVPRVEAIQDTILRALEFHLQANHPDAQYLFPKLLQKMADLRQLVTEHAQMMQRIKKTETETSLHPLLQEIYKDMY
# Method in brief: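 HEK293H GeneBLAzer PPARd UAS-bla reporter cells; cpd + L165041 300 nM final, 17 h 37 C; LiveBLAzer B/G FRET substrate 2 h RT; fluorescence intensity read-out. Antagonist mode.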
# [16] = qHTS assay to identify small molecule agonists of the estrogen receptor beta (ER-beta) signaling pathway - cell viability counter screen (AID 1259380); note: nearly all actives have a fitted effect of over 30% in size
# Method in brief: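 Luminescence read-out (CellTiter-Glo, 30 min, room temp) taken in the same wells as the beta-lactamase reporter assay; ER-beta-UAS-bla HEK293T cells exposed to DMSO-dissolved compounds for 16 hr at 37C in 2% charcoal-stripped FBS medium.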
# Tags give direction and shape of the fitted curve or compound fluorescence and quenching.
compound,measurement,setting,value
CCOc1ccc2nc(S(N)(=O)=O)sc2c1,activation,[1],inconclusive: 2.96% [phenotype inactive]
same,"activity change, negative = inhibition",[2],inconclusive: 12.8%
same,Potency,[3],inactive
same,Potency,[4],inconclusive: 29.8 µM [activator]
Clc1nc2ccccc2s1,Potency,[5],inactive
CCN(CC)CCN,Potency,[6],inactive
CC(C)(O)c1ccccc1,Potency,[6],inactive
same,Potency,[7],"inconclusive: 65.7 µM [rising, single point]"
CC12CCCC=C1C(=O)OC2=O (stereo not given),Potency,[5],inactive
same,Potency,[6],inactive
same,Potency,[4],inactive
CC(C)CCCCCCN,Potency,[8],inactive
same,Potency,[3],"inconclusive: 1.6 µM [cytotoxic, partial curve]"
same,Potency,[9],inactive
same,Potency,[4],inactive
CCOc1ccc(NC(N)=O)cc1,Potency,[1],"inconclusive: 68.6 µM [activator, partial curve, poor fit]"
same,Potency,[10],inactive
same,Potency,[9],"inconclusive: 21.7 µM [rising, partial curve, poor fit]"
CCC(C)C(=O)OCCc1ccccc1 (stereo not given),"activity change, negative = inhibition",[2],inconclusive: -7.38%
same,Potency,[5],"inconclusive: 54.9 µM [activator, single point]"
CCCC[C@H]1CN(CC2CCOCC2)C(=O)OC12CCN(C1(C)CCN(C(=O)c3c(C)ncnc3C)CC1)CC2,Potency,[11],inactive
same,Potency,[8],"inconclusive: 27.2 µM [rising, partial curve, poor fit]"
same,Potency,[6],"inconclusive: 48.4 µM [activator, single point]"
same,Potency,[4],inactive
Cc1ccccc1C=O,Potency,[12],inactive
same,Potency,[8],inactive
same,Potency,[13],inactive
FC1(F)C(F)(F)C(F)(F)C2(F)C(F)(C1(F)F)C(F)(F)C(F)(F)C1(F)C(F)(F)C(F)(F)C(F)(F)C(F)(F)C12F (stereo not given),Potency,[13],inactive
same,Potency,[14],inactive
same,Potency,[9],"inconclusive: 56 µM [rising, partial curve, poor fit]"
CCCc1nc(C)c2c(=O)[nH]c(-c3cc(S(=O)(=O)N4CCN(CC)CC4)ccc3OCC)nn12,Potency,[12],inactive
same,Potency,[10],"inconclusive: 26.8 µM [cytotoxic, partial curve, poor fit]"
same,activation,[14],inconclusive: 9.79% [at 42.5 µM]
Nc1ccc(S(=O)(=O)Nc2ccccn2)cc1,Potency,[11],inactive
same,Potency,[3],inactive
same,Potency,[7],inactive
CCOc1ccccc1O,Potency,[13],active: 1.74 µM
same,activation,[14],inconclusive: 13.6%
CCCCN(CCCC)CCCC,Potency,[15],inactive
same,Potency,[16],inactive
